Hit rate of the full screen: of about 39,000 compounds, about 220 (0.56%) showed activity. The list shows a part of the results.
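Also: static incubation at 37 °C against the wild-type strain, values averaged over two biological replicates.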

In this assay the test system is Escherichia coli K-12 BW25113. Description: relative growth (OD600 normalised to plate interquartile mean) (fraction); higher = less growth inhibition, active = 0.2 or less. As to conditions: 50 µM; LB; incubation time: overnight (16-24 h).
For the compound `COc1ccc(CN(C)C[C@H]2Oc3c(NS(=O)(=O)c4cn(C)cn4)cccc3C(=O)N([C@@H](C)CO)C[C@@H]2C)cc1`, the relative growth was inactive: 1.

In the case of `Cc1noc(C)c1NC(=O)N(C)C[C@H]1Oc2ncc(C#CCC(C)C)cc2C(=O)N([C@@H](C)CO)C[C@H]1C`, the relative growth was inactive: 1.01.

For `C[C@H]1CN([C@@H](C)CO)S(=O)(=O)c2ccc(C#CCN(C)C)cc2O[C@H]1CN(C)Cc1ccccn1`, the relative growth is inactive: 0.993.

As to `C[C@@H]1CN([C@@H](C)CO)C(=O)c2cc(NC(=O)c3ccncc3)ccc2O[C@@H](C)CCCCO[C@H]1CN(C)C(=O)C1CCCCC1`, the relative growth was inactive: 1.03.

`COc1ccc(NC(=O)N(C)C[C@H]2OCCCC[C@H](C)Oc3ccc(NS(=O)(=O)c4ccc(OC)cc4)cc3C(=O)N([C@@H](C)CO)C[C@H]2C)cc1`: the relative growth was inactive: 1.02.

On to `C[C@@H]1CN([C@H](C)CO)C(=O)c2cc(NS(C)(=O)=O)ccc2O[C@H]1CN(C)Cc1ccc2c(c1)OCO2`, for which the relative growth is inactive: 0.985.

Turning to `COc1ccccc1CNC(=O)C[C@@H]1C[C@@H]2c3cc(NC(=O)C4CCOCC4)ccc3O[C@@H]2[C@@H](CO)O1`, the relative growth was inactive: 0.971.

`C[C@H]1CN([C@@H](C)CO)C(=O)c2cccc(NC(=O)c3ccncc3)c2O[C@H]1CN(C)Cc1ccc(C(=O)O)cc1`: the relative growth was inactive: 1.

As for `COCC(=O)Nc1ccc2c(c1)OC[C@H](C)N(Cc1ccccc1F)C[C@H](C)[C@@H](OC)CN(C)C2=O`, the relative growth was inactive: 1.02.

`C[C@@H]1CN([C@@H](C)CO)C(=O)CCCn2nncc2CO[C@@H]1CN(C)C(=O)Nc1ccc(C(C)(C)C)cc1`: the relative growth is inactive: 0.988.

Regarding `CCOC(=O)N1CCN(C(=O)C2CCN(S(=O)(=O)N(CC)CC)CC2)CC1`, the relative growth is inactive: 1.01.

As to `COCCN1C[C@]23CN(C(=O)COC)C[C@@H](C[C@H]2S1(=O)=O)O3`, the relative growth is inactive: 1.02.

For the compound `NCC[C@@H]1CC[C@@H](NC(=O)C2CCCCC2)[C@H](CO)O1`, the relative growth was inactive: 0.98.

In the case of `CCC(C)C1NC(=O)C(CCNCS(=O)(=O)[O-])NC(=O)C(NC(=O)C(CCNCS(=O)(=O)[O-])NC(=O)C(NC(=O)C(CCNCS(=O)(=O)[O-])NC(=O)CCCCC(C)C)C(C)O)CCNC(=O)C(C(C)O)NC(=O)C(CCNCS(=O)(=O)[O-])NC(=O)C(CCNCS(=O)(=O)[O-])NC(=O)C(C(C)CC)NC1=O.[Na+].[Na+].[Na+].[Na+].[Na+]` (stereo unspecified), the relative growth was active: 0.0529.

With `C[C@@H]1CN([C@H](C)CO)C(=O)c2cc(-c3cccnc3)cnc2O[C@H]1CN(C)Cc1ccc(Oc2ccccc2)cc1`, the relative growth is inactive: 1.04.

As for `C[C@@H]1CN([C@@H](C)CO)C(=O)Cc2cc(NC(=O)Nc3ccc(F)cc3)ccc2O[C@@H]1CN(C)Cc1ccc(-c2ccccc2)cc1`, the relative growth is inactive: 1.02.

`C[C@H]1CN([C@@H](C)CO)C(=O)c2cccc(NS(=O)(=O)c3ccccc3)c2O[C@H]1CN(C)S(=O)(=O)c1cn(C)cn1`: the relative growth is inactive: 0.99.

On to `Cc1noc(C)c1NC(=O)N(C)C[C@H]1Oc2ccc(NC(=O)CCCN(C)C)cc2C(=O)N([C@H](C)CO)C[C@H]1C`, for which the relative growth was inactive: 1.06.

Regarding `C[C@H]1CN([C@@H](C)CO)C(=O)c2cccc(NC(=O)c3nc4ccccc4s3)c2O[C@@H]1CN(C)S(=O)(=O)c1cn(C)cn1`, the relative growth was inactive: 0.992.

In the case of `COc1ccc(S(=O)(=O)N(C)C[C@@H]2OCCCC[C@@H](C)Oc3ccc(NC(=O)Nc4cccc5ccccc45)cc3C(=O)N([C@H](C)CO)C[C@H]2C)cc1`, the relative growth is inactive: 1.05.

For the compound `C[C@H](CO)N1C[C@H](C)[C@H](CN(C)S(=O)(=O)c2ccc(C#N)cc2)Oc2ncc(C#CCN(C)C)cc2C1=O`, the relative growth is inactive: 1.01.

`C[C@@H]1CCCCO[C@@H](CN(C)Cc2ccc3c(c2)OCO3)[C@@H](C)CN([C@H](C)CO)C(=O)c2cc(NC(=O)Nc3ccc(F)cc3)ccc2O1`: the relative growth is inactive: 1.

For the compound `COc1ccc(S(=O)(=O)N(C)C[C@@H]2Oc3c(NS(=O)(=O)c4c(C)noc4C)cccc3C(=O)N([C@@H](C)CO)C[C@@H]2C)cc1`, the relative growth is inactive: 1.01.

With `Cc1noc(C)c1NC(=O)Nc1ccc2c(c1)CC(=O)N([C@@H](C)CO)C[C@@H](C)[C@@H](CN(C)C(=O)Nc1ccc(C(F)(F)F)cc1)O2`, the relative growth is inactive: 0.982.

Consider `O=C(C[C@@H]1CC[C@@H]2[C@H](COC[C@@H](O)CN2C(=O)c2ccc3c(c2)OCO3)O1)NCCN1CCCC1`, for which the relative growth is inactive: 1.01.

As for `C[C@H]1CCCCO[C@H](CN(C)C(=O)Nc2ccc(F)cc2)[C@@H](C)CN([C@@H](C)CO)C(=O)c2cc(NC(=O)Nc3ccc(C(F)(F)F)cc3)ccc2O1`, the relative growth was inactive: 0.97.

`COc1cc(N2CCC3(CC2)CNC(=O)CO3)ncn1`: the relative growth is inactive: 0.968.

Regarding `C[C@@H]1CN([C@H](C)CO)C(=O)Cc2cc(NC(=O)CCN3CCOCC3)ccc2O[C@@H]1CN(C)Cc1ccccc1`, the relative growth was inactive: 0.982.

Take `CC(C)CC#Cc1ccc2c(c1)O[C@H](CN(C)C(=O)C1CCOCC1)[C@@H](C)CN([C@@H](C)CO)S2(=O)=O`: the relative growth was inactive: 1.

`CC(=O)NCCCC[C@@H]1NC(=O)[C@@H]2C[C@H](C(=O)NCCCC[N+](C)(C)C)[C@H](c3cccc(OCCO)c3)N2C1=O`: the relative growth is inactive: 0.965.

With `CC(=O)OCC[N+](C)(C)C`, the relative growth is inactive: 1.01.

Consider `C[C@@H]1CN([C@H](C)CO)C(=O)Cc2cc(NS(=O)(=O)c3cccs3)ccc2O[C@H]1CN(C)S(=O)(=O)c1ccccc1`, for which the relative growth is inactive: 0.998.

For `COCC#Cc1ccc([C@H]2[C@@H](CO)N3C(=O)CN(C(=O)CN4CCOCC4)C[C@H]23)cc1`, the relative growth was inactive: 0.999.

As for `C[C@H]1CCCCO[C@H](CN(C)C(=O)Nc2ccccc2)[C@@H](C)CN([C@@H](C)CO)C(=O)c2cc(NS(=O)(=O)c3ccc(F)cc3)ccc2O1`, the relative growth is inactive: 1.01.

Consider `Cc1ccc(S(=O)(=O)N(C)C[C@H]2Oc3c(NC(=O)NC(C)C)cccc3C(=O)N([C@@H](C)CO)C[C@H]2C)cc1`, for which the relative growth is inactive: 0.992.

On to `C[C@@H]1CN([C@H](C)CO)C(=O)c2cccc(NC(=O)NC3CCCCC3)c2O[C@H]1CN(C)C(=O)Nc1ccc(C(F)(F)F)cc1`, for which the relative growth is inactive: 0.72.

Values taken from the supplement of paper PMC9446081.
